# Experimental data taken from the supplement of paper PMC8728848.
# The list shows a part of the results.
# Legend:
# Test in all cases: glycan array binding signal (z-score within array); higher = stronger binding
# Settings in all cases: glycan notation: IUPAC condensed, linker removed
# [1] = molecular target: Gal(b1-4)GlcNAc(b1-3)Gal(b1-4)GlcNAc(b1-6)[Gal(b1-3)]GalNAc
# Outline: (§1)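 The Consortium for Functional Glycomics database supplied 3228 glycan arrays, of which those lacking an available protein sequence were dropped. The binding signal, a within-array Z-score, was averaged across arrays of the same protein sequence and across linkers. Negative scores can be read as non-binding.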
# [2] = molecular target: Gal(b1-4)GlcNAc(b1-3)Gal(b1-4)[Fuc(a1-3)]GlcNAc(b1-3)Gal(b1-4)[Fuc(a1-3)]GlcNAc
# Outline: as §1
# [3] = molecular target: Gal(b1-4)GlcNAc(b1-3)GalNAc
# Outline: as §1
# [4] = molecular target: Gal(b1-4)GlcNAc(b1-3)[Fuc(a1-3)GlcNAc(b1-6)]Gal(b1-4)Glc
# Outline: as §1
# [5] = molecular target: Gal(b1-4)GlcNAc(b1-3)[Gal(b1-4)GlcNAc(b1-6)]Gal(b1-4)GlcNAc
# Outline: as §1
# [6] = molecular target: Gal(b1-4)GlcNAc(b1-3)[GlcNAc(b1-6)]Gal(b1-4)GlcNAc
# Outline: as §1
# [7] = molecular target: Gal(b1-4)GlcNAc(b1-6)Gal(b1-4)GlcNAc
# Outline: as §1
# [8] = molecular target: Gal(b1-4)GlcNAc(b1-6)GalNAc
# Outline: as §1
# [9] = molecular target: Gal(b1-4)GlcNAc(b1-6)[Gal(b1-3)]GalNAc
# Outline: as §1
# [10] = molecular target: Gal(b1-4)GlcNAc(b1-6)[Gal(b1-4)GlcNAc(b1-3)]GalNAc
# Outline: as §1
# Gal(b1-4)GlcNAc6P = molecular target: Gal(b1-4)GlcNAc6P
# Outline: as §1
# Gal(b1-6)Gal = molecular target: Gal(b1-6)Gal
# Outline: as §1
# Gal3S(b1-3)GalNAc = molecular target: Gal3S(b1-3)GalNAc
# Outline: as §1
# Gal3S(b1-3)GlcNAc = molecular target: Gal3S(b1-3)GlcNAc
# Outline: as §1
# [11] = molecular target: Gal3S(b1-3)[Fuc(a1-4)]GlcNAc
# Outline: as §1
# Gal3S(b1-4)Glc = molecular target: Gal3S(b1-4)Glc
# Outline: as §1
# Gal3S(b1-4)Glc6S = molecular target: Gal3S(b1-4)Glc6S
# Outline: as §1
# Gal3S(b1-4)GlcNAc = molecular target: Gal3S(b1-4)GlcNAc
# Outline: as §1
# [12] = molecular target: Gal3S(b1-4)[Fuc(a1-3)]Glc6S
# Outline: as §1
# [13] = molecular target: Gal3S(b1-4)[Fuc(a1-3)]GlcNAc
# Outline: as §1
# [14] = molecular target: Gal3S(b1-4)[Fuc(a1-3)]GlcNAc6S
# Outline: as §1
# Gal3S4S(b1-4)GlcNAc = molecular target: Gal3S4S(b1-4)GlcNAc
# Outline: as §1
# Gal3S6S(b1-4)GlcNAc = molecular target: Gal3S6S(b1-4)GlcNAc
# Outline: as §1
# Gal3S6S(b1-4)GlcNAc6S = molecular target: Gal3S6S(b1-4)GlcNAc6S
# Outline: as §1
# Gal4S(b1-4)GlcNAc = molecular target: Gal4S(b1-4)GlcNAc
# Outline: as §1
# Gal4S6S(b1-4)GlcNAc = molecular target: Gal4S6S(b1-4)GlcNAc
# Outline: as §1
# Gal6P(b1-4)GlcNAc = molecular target: Gal6P(b1-4)GlcNAc
# Outline: as §1
# Gal6S(b1-3)GlcNAc = molecular target: Gal6S(b1-3)GlcNAc
# Outline: as §1
# Gal6S(b1-3)GlcNAc6S = molecular target: Gal6S(b1-3)GlcNAc6S
# Outline: as §1
# Gal6S(b1-4)Glc = molecular target: Gal6S(b1-4)Glc
# Outline: as §1
# Gal6S(b1-4)Glc6S = molecular target: Gal6S(b1-4)Glc6S
# Outline: as §1
# Gal6S(b1-4)GlcNAc = molecular target: Gal6S(b1-4)GlcNAc
# Outline: as §1
# Gal6S(b1-4)GlcNAc6S = molecular target: Gal6S(b1-4)GlcNAc6S
# Outline: as §1
# GalNAc(a1-3)Gal = molecular target: GalNAc(a1-3)Gal
# Outline: as §1
# GalNAc(a1-3)GalNAc = molecular target: GalNAc(a1-3)GalNAc
# Outline: as §1
# [15] = molecular target: GalNAc(a1-3)GalNAc(b1-3)Gal(a1-4)Gal(b1-4)Glc
# Outline: as §1
# [16] = molecular target: GalNAc(a1-3)GalNAc(b1-3)Gal(a1-4)Gal(b1-4)GlcNAc
# Outline: as §1
# GalNAc(b1-3)Gal = molecular target: GalNAc(b1-3)Gal
# Outline: as §1
# [17] = molecular target: GalNAc(b1-3)Gal(a1-4)Gal(b1-4)GlcNAc
# Outline: as §1
# [18] = molecular target: GalNAc(b1-3)Gal(a1-4)Gal(b1-4)GlcNAc(b1-3)Gal(b1-4)Glc
# Outline: as §1
# [19] = molecular target: GalNAc(b1-3)Gal(a1-6)Gal(b1-4)Glc
# Outline: as §1
# GalNAc(b1-3)GalNAc = molecular target: GalNAc(b1-3)GalNAc
# Outline: as §1
# GalNAc(b1-3)GlcNAc = molecular target: GalNAc(b1-3)GlcNAc
# Outline: as §1
# GalNAc(b1-4)Gal(b1-4)Glc = molecular target: GalNAc(b1-4)Gal(b1-4)Glc
# Outline: as §1
# GalNAc(b1-4)GlcNAc = molecular target: GalNAc(b1-4)GlcNAc
# Outline: as §1
binder,measurement,setting,value
Als3-2 (Candida albicans) (protein) KTITGVFNSFNSLTWSNAATYNYKGPGTPTWNAVLGWSLDGTSASPGDTFTLNMPCVFKFTTSQTSVDLTAHGVKYATCQFQAGEEFMTFSTLTCTVSNTLTPSIKALGTVTLPLAFNVGGTGSSVDLEDSKCFTAGTNTVTFNDGGKKISINVDFERSNVDPKGYLTD,glycan array binding signal (z-score),[1],0.662
same,glycan array binding signal (z-score),[2],0.27
same,glycan array binding signal (z-score),[3],-0.479
same,glycan array binding signal (z-score),[4],0.849
same,glycan array binding signal (z-score),[5],0.212
same,glycan array binding signal (z-score),[6],-0.068
same,glycan array binding signal (z-score),[7],1.11
same,glycan array binding signal (z-score),[8],-0.031
same,glycan array binding signal (z-score),[9],-0.306
same,glycan array binding signal (z-score),[10],-0.277
same,glycan array binding signal (z-score),Gal(b1-4)GlcNAc6P,-0.1
same,glycan array binding signal (z-score),Gal(b1-6)Gal,-0.649
same,glycan array binding signal (z-score),Gal3S(b1-3)GalNAc,-0.43
same,glycan array binding signal (z-score),Gal3S(b1-3)GlcNAc,-0.371
same,glycan array binding signal (z-score),[11],0.605
same,glycan array binding signal (z-score),Gal3S(b1-4)Glc,-0.673
same,glycan array binding signal (z-score),Gal3S(b1-4)Glc6S,-0.35
same,glycan array binding signal (z-score),Gal3S(b1-4)GlcNAc,0.36
same,glycan array binding signal (z-score),[12],-0.51
same,glycan array binding signal (z-score),[13],-0.475
same,glycan array binding signal (z-score),[14],-0.048
same,glycan array binding signal (z-score),Gal3S4S(b1-4)GlcNAc,3.1
same,glycan array binding signal (z-score),Gal3S6S(b1-4)GlcNAc,-0.446
same,glycan array binding signal (z-score),Gal3S6S(b1-4)GlcNAc6S,0.82
same,glycan array binding signal (z-score),Gal4S(b1-4)GlcNAc,-0.673
same,glycan array binding signal (z-score),Gal4S6S(b1-4)GlcNAc,-0.189
same,glycan array binding signal (z-score),Gal6P(b1-4)GlcNAc,-0.665
same,glycan array binding signal (z-score),Gal6S(b1-3)GlcNAc,3.68
same,glycan array binding signal (z-score),Gal6S(b1-3)GlcNAc6S,-0.346
same,glycan array binding signal (z-score),Gal6S(b1-4)Glc,-0.531
same,glycan array binding signal (z-score),Gal6S(b1-4)Glc6S,0.573
same,glycan array binding signal (z-score),Gal6S(b1-4)GlcNAc,-0.562
same,glycan array binding signal (z-score),Gal6S(b1-4)GlcNAc6S,-0.36
same,glycan array binding signal (z-score),GalNAc(a1-3)Gal,1.88
same,glycan array binding signal (z-score),GalNAc(a1-3)GalNAc,-0.59
same,glycan array binding signal (z-score),[15],-0.542
same,glycan array binding signal (z-score),[16],-0.488
same,glycan array binding signal (z-score),GalNAc(b1-3)Gal,-0.434
same,glycan array binding signal (z-score),[17],-0.023
same,glycan array binding signal (z-score),[18],0.653
same,glycan array binding signal (z-score),[19],-0.635
same,glycan array binding signal (z-score),GalNAc(b1-3)GalNAc,-0.16
same,glycan array binding signal (z-score),GalNAc(b1-3)GlcNAc,-0.164
same,glycan array binding signal (z-score),GalNAc(b1-4)Gal(b1-4)Glc,-0.429
same,glycan array binding signal (z-score),GalNAc(b1-4)GlcNAc,0.934
